The labels stand for the following.
B1: LINE1-full (parent)
chain: UACGUAGGUGGUUUUCCCCUGAUAGUGCUAAGGGGGCCUGGAAGUUUGGACUGGGCAGAGCUCAACACAGCGUGGCAAAGUGGCUGUGGCUAGACUGCCUCUCUGGAUUCCUCGUCACUCAGCAGGGCAUCUCUGAGAGAAAUGCC

The source gives no read counts; variants with many changes may rest on few reads.

Variants of B1 are the subject of the data set. Description: self-cleavage, relative activity (ratio to wild type); higher = more cleavage; in vitro, sequencing; the parent is a self-cleaving ribozyme.
Turning to UACGUAGGUGGUUUUCCCCUGAUCGUGCUAAGGGGGGCUGGAAGUUUGGACUGGGCAGAGCUCAACACAGCGUGGCAAAGUGGCUGUGGCUAGACUGCCUCUCCGGAUUCCUCGUCACUCAGCAGGGCAUCUCUGAGAGAAGUGCC [A24C C37G U104C A142G], the self-cleavage turned out to be 1.65.
The value for UACGUAGGUGGUUUUCCCCUGAGAGUGCUAAGGGGGCCUAGAAGUUUGGACUGGGCAGAGCUCAACACAGCGUGGCAAAGUGGCUGUGGCUAGACAGCCUCUCUGGAUUCCUCGUCACUCAGCAGGGCAUCUCUGAGAGAAAUGCC [U23G G40A U96A] was 0.07; that for UACGUAGGUGGUUUUCCCCUGAUGGUGCUAAGGGGGCCUGGGAGUUUGGACUGGGCAGAGCUCAACACAGCGUGGCAAAGUGGCUGUGGCUAGACUGCCUCUCUGGACUCCUCGUCACUCAGCAGGGCAUCUCUGAGAGAAAUGCC [A24G A42G U108C] was 1.18; that for UACGUAGGUGGUUUUCCCCUGAUGGUGCUAAGGGGGCCUGGAAGUUUGGACUGGGCAGAGCUCAACACAGCGUGGCAUAGUGGCUGUGGCUAGACUGCCUCUCUGGAUUCCUCGACACUCAGCAGGGCAUCUCUGAGAGAAAUGCC [A24G A78U U115A] was 1.72.
For the variant UACGUAGGUGGUUUUCCCCUGAUGGUGCUAAGGGGGCCUGGUAGUUUGGACUGGGCAGAGCUCUACACAGCGUGGCAAAGUGGCUGUGGCCAGACUGCCUCUCUGGAUUCCUCAUCACUCAGCAGGGCAUCUCUGAGAGAAAUGCC [A24G A42U A64U U91C G114A], the self-cleavage amounted to 0.19.
UACGUAGGUGGUUUUCCCCUGAUGGUGCUAAGGGGGCCUGGAGGUUUGGACUGGGCAGAGCUCAACACAGCGUGGCAGAGUGGCUGUGGCUAGACUGCCUCUCUGGAUUCCUCGUCACUCAGCAGGGCACCUCUGAGAGAAAUGCC [A24G A43G A78G U130C]: the self-cleavage came out at 1.84.
UACGUAGGUGGUUUUCCCCUGAUGGUGCUAAGGGGGCCUGGAAGUUUGGACUGGGCGGAGCUCAACACAGCGUGGCAAAGAGGCUGUGGCUAGACUGCCUCUCUGGAUUCCUCGUCACUCAGCAGGGCAUCUCUGAGAGAAAUGCC [A24G A57G U81A]: the self-cleavage is 1.48.
As for UACGUAGGUGGUUUUCCCCUGACAGUGCUAAGGGGGCCUGGAAGUUUGGACUGGGCAGAGCUCAACACAGCGUGGCAAAGUGGCUGUGGCUAGACUGCCUCUCUGGAUUCCUCGUCACCCCGCUGGGCAUCUCUGAGAGAAAUGCC [U23C U119C A121C A124U], the figure is 1.67.
As for UACGUAGGUGGUUUUCCCCUGAUGGUGCUUAGGGGGCCUGGAAGUUUGGACUGGGCAGAGCUCAACACAGCGUGGCAAAGCGGCUGUGGCUAGACUGCCUCUCUGGAUUCCUCGUCACUCAGCAGGGCAUCUCUGAGAGGAAUGCC [A24G A30U U81C A140G], the figure is 1.08.
The value for UACGUAGGUGGUUUUCCCCUGACAGUGCUAAGGGGGCCUGGAAGUUUGGACUGGGCAGAGCUCAACACAGCGUGGCAAAGUGGCUGUGGCUAGACUGCCUCUCUGGAUUCCUCGUCACUCAGCAGGGCAUCCCUGGGAGAAAUGCC [U23C U132C A136G] was 2.3.
As for UACGUAGGUGGUUUUCCCCUGAGAGUGCUGAGGGGGCCUGGAAGUUUGGACUGGGCAGAGCUCAACACAGCGUGGCAAAGUGGCUGUGGCUAGACUGCCUCUCUGGAUUCCUCGUCACUCAGCAGGGCAUCUCUGAGAGGAAUGCC [U23G A30G A140G], the self-cleavage turned out to be 1.67.
As for UACGUAGGUGGUUUUCCCCUGAUGGUGCUAAGGGGGCCUGGUAGUUUGGACUGGGCAGAGCUCAACACAGCGUGGCAAAGAGGCUGUGGCUAGACUGCCUCUCUGGAUUCCUCGUCACUCAGCAGGGCAUCUCUGAGAGAAAUGCC [A24G A42U U81A], the figure is 0.94; as for UACGUAGGUGGUUUUCCCCUGAUGGUGCUAAGGGGGCCUGGAAGUUUGGACUGGGCUGAGCUCAACGCAGCGUGGCAAAGUGGCUGUGGCUAGACUGCCUCUCUGGAUACCUCGUCACUCAGCAGGGCAUCUCAGAGAGAAAUGCC [A24G A57U A67G U109A U134A], 0.
The value for UACGUAGGUGGUUUUCCCCUGACAGUGCUAAGGGGGCCUGGAAGUUUGGACUGGGCAGAGCUCAACACAGCGUGGCAAAGUGGCUGUGGCUAGACUGCCUCUCUGGAUUCCUCGCCACACAGCAGGGCAUCUCUGAGAGAAAUGCC [U23C U115C U119A] was 2.8; that for UACGUAGGUGGUUUUCCCCUGAUGGUGCUAAGGGGGCCUGGAAGUUUGGACUGGGCAGAGCUCAGCACAGCGUGGCAAAGUAGCUGUGGCUAGACUGCCUCUCUGGAUUCCUCGUCACUCAGCAGGGCAUCUCUGAGAGAAAUGCC [A24G A65G G82A] was 0.06; that for UACGUAGGUGGUUUUCCCCUGAUGGUGCUAAGGGGGCCUGGAAGUUUGGACUGGGCAGAGCUCAACUCAGCGUGGCAAAGUGGCUGUGGCUAGACUGCCUCUCUGGAUUCCUCGUCACCCAGCAGGGCAUCUCUGAGAGAAAUGCC [A24G A67U U119C] was 0.26.
UACGUAGGUGGUUUUCCCCUGAUCGUGCUAAGGGGGCCUGGAAGUUUGGACUGGGCAGAGCUCAACACAGCGUGGCAUAGUGGCUGUCGCUAGACUGCCUCUCAGGAUUCCUCGUCACUCAGCAGGGCAUCUCUGAGAGAAAUGCC [A24C A78U G88C U104A]: the self-cleavage was determined as 0.11.
On to UACGUAGGUGGUUUUCCCCUGAUGGUGCUAAGGGGGCCUGGAAGUUUGGACUGGGCAGAGCUCAACACAGCGUGGCAAUGUGGCUGUGGCUAGACUGCCUCUCUGGAUUCCUCAUCACUCGGCAGGGCAUCUCUGAGAGAAAUGCC [A24G A79U G114A A121G], for which the self-cleavage was determined as 1.35.
As for UACGUAGGUGGUUUUCCCCUGAUGGUGCUAAGGGGGCCUGGUAGUAUGGACUGGGCAGAGCUCAACACAGCGUGGCAAAGUGGCUGUGGUUAGACUGCCUCUCUGGAUUCCUCGUCACUCAGCAGGGCAUCUCUGAGAGAAAUGCC [A24G A42U U46A C90U], the self-cleavage amounted to 0.06.
Consider UACGUAGGUGGUUUUCCCCUGAUGGUGCUAAGGGGGCCUGGAAGUUUGGACUGGGCAGAGCUCAACACAGCGUGGCUAAGUGGCUGUGGCUAGACUGCCUCUCUGGAUUCCUCGUCACUCAGCAGGGCAUCCCUGAGAGAAAUGCC [A24G A77U U132C], for which the self-cleavage is 1.42.

The values are drawn from the RNAGym collection of RNA variant scans (doi:10.7554/elife.90254).
